# Results from PubChem BioAssay AID686978 (National Center for Advancing Translational Sciences (NCATS), 2013).
# Screen size: about 420,000 compounds; about 64,000 (15%) were called active. The shares of active, inactive and inconclusive entries below differ from those in the screen. Calls come from the whole dose curve; as a rule, active = well fitted inhibition curve with a large enough effect; inconclusive = small, poorly fitted or top-dose-only effect; inactive = flat fitted curve, though single readings scatter. No potency is given beside an inconclusive call; the fits are too rough.
# Test: qHTS for Inhibitors of human tyrosyl-DNA phosphodiesterase 1 (TDP1): qHTS in cells in absence of CPT; note: nearly all actives have a fitted effect of over 55% in size
# Conditions: DT40 Tdp1-/- hTDP1 cells, no CPT, ATP luminescence, 48 h; series mostly up to 46.2 µM
# Procedure, shortened: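 Readout: luminescence from CellTiter-Glo after 30 min in the dark at RT. Cells: DT40 Tdp1-/- with stable hTDP1, 400/well. Exposure: compounds alone, ≥48 hr, 37 °C.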
# Potency is the fitted concentration of half-maximal effect; tags give direction and shape of the fitted curve.
row,Structure (SMILES),Potency
1,O=C(Nc1ccccc1Cl)OC1CN2CCC1CC2 (stereo not drawn),"inconclusive [inhibitor, single point]"
2,CC(=O)OC1CCC2(C)C(CC(=O)C3C2CCC2(C)C(OC(C)=O)CCC32)C1 (stereo not drawn),"inconclusive [inhibitor, single point]"
3,CC1CCCCN1C(=O)c1ccc(N2CC3CC(C2)c2cccc(=O)n2C3)c([N+](=O)[O-])c1 (stereo not drawn),inactive
4,COCCNC(=O)CN1C2CCC1CC(O)(c1cccnc1)C2 (stereo not drawn),inactive
5,CC1=Nc2ccccc2/C1=C/c1c(O)[nH]c(=O)[nH]c1=O,inactive
6,CN(C(=O)Cc1ccc(Cl)c(Cl)c1)[C@H](CN1CCCC1)c1cccc(N=C=S)c1,active: 13.3 µM
7,CCCCn1nnnc1C(c1ccc(OC)cc1)N1CCC2(CC1)C(=O)NCN2c1ccccc1 (stereo not drawn),"inconclusive [inhibitor, partial curve]"
8,Cc1ccc([C@H]2C[C@H](O)[C@@H](n3cc(COC(=O)c4ccccc4)nn3)CN2C(=O)C2CCCCC2)cc1,"inconclusive [inhibitor, single point]"
9,CCN(C[C@H]1N[C@@](CC)(C(=O)OC)[C@H]2C(=O)N(Cc3ccccc3)C(=O)[C@@H]12)S(=O)(=O)c1ccc(OC)cc1,"inconclusive [inhibitor, single point]"
10,CC(=NC(C)c1ccccc1)c1c(O)[nH]c(=O)[nH]c1=O (stereo not drawn),inactive
11,O=C1/C(=C/c2ccc([N+](=O)[O-])cc2)N2CCC1CC2,"inconclusive [inhibitor, partial curve, poor fit]"
12,O=C(c1cc(-c2ccccc2)nc2ccccc12)N1CCC2(CC1)OCCO2,"inconclusive [inhibitor, partial curve]"
13,CN(C)C1(CNC(=O)Cc2ccccc2F)CCCCC1,inactive
14,COc1ccc(NC(=O)CN2CC=C(c3ccccc3)CC2)cc1S(=O)(=O)N1CCOCC1,"inconclusive [inhibitor, partial curve, poor fit]"
15,COc1ccc(O)c(C(=O)c2cnn(-c3ccccn3)c2)c1,"inconclusive [inhibitor, single point]"
16,CC(C)C[C@H]1C(=O)N2CCC[C@H]2[C@]2(O)O[C@](NC(=O)[C@@H]3C=C4c5cccc6[nH]cc(c56)C[C@H]4N(C)C3)(C(C)C)C(=O)N12,active: 16.4 µM
17,CC(=NCCC(c1ccccc1)c1ccccc1)c1c(O)n(C)c(=O)n(C)c1=O,active: 13 µM
18,COc1ccc(-n2c(/C=C3\C(=O)Nc4ccccc43)nc3ccccc3c2=O)cc1,"inconclusive [inhibitor, partial curve]"
